{
  "source": "paper doi:10.1101/2020.05.18.103002",
  "about": "(bioRxiv, 2020)",
  "binders": {"B1": {"name": "NCK2 1|3|2 full length recombinant protein (SH3-shuffled, tag-free) (other)", "chain": "MTEEVIVIAKWDYTAQQDQELDIRKNERLWLLDDSKTWWRVRNAANRTGYVPSNYVERKNSLKKGSLVKNLKDTLGLGKTRRKPSARDASPTPSTDAEYPANGSGADRIYDLNHVVQTLYPFSSVTEEELSFEKGETMEVIEKPENDPEWWKCKNARGQVGLVPKNYVVVLSEAAAEAPSFLSLRRGTALSNGQGARVLIPAFVKFAYVAEREDELSLVKGSRVTVMEKCSDGWWRGSFNGQIGWFPSNYVLEEADDGPALHPAHTPQISYTGPSASGRFAGREWYYGNVTRHQAECALNERGVEGDFLIRDSESSPSDFSVSLKASGRNKHFKVQLVDSVYCIGQRRFHSMDELVEHYKKAPIFTSEHGEKLYLVRALQ"}},
  "target": "T1, FITC-conjugated PAK1 peptide (DIQDKPPAPPMRNTST) (also: FITC-conjugated, site not given here)",
  "T1 peptide": "DIQDKPPAPPMRNTST",
  "experiment": "fluorescence polarisation",
  "note": "Where no end group is shown, it is not given here.",
  "data": [
    {"binder": "B1", "values": [
      {"measurement": "fold decrease of binding against WT NCK2", "result": "~2", "unit": "fold"}
    ]}
  ]
}
